20 compounds from the supplement of paper PMC12355420 can be followed below.

Structures can show the parent of a compound that is named as a salt. The list shows a part of the results. Rule as the data show it: active = 0.5 or less and inactive = the rest. Many values rest on one well or one pass, so single values are uncertain.

Holding throughout (settings): 50 µM; 24 h
The subject of assay [1] is HeLa VPS33A reporter cells. Put plainly: relative cell viability (CellMask signal) vs DMSO (fraction of DMSO); higher = less cytotoxic.
The subject of assay [2] is HeLa VPS33A R498W KI + HA-SDC1-FLAG. The assay is described as follows: relative GAG core protein HA-SDC1 amount per cell number vs DMSO (fraction of DMSO); higher = more SDC1 (GAG core protein).
Assay [3] concerns HeLa VPS33A KO + NLuc-VPS33A R498W. The assay is described as follows: relative mutant VPS33A R498W amount (NanoLuc luminescence) vs DMSO (fraction of DMSO); HeLa model of a glycosaminoglycan (GAG) storage disease; KI is knock-in and KO knock-out; SDC1 is syndecan 1; higher = higher mutant VPS33A level.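 Also: screen of an FDA-approved drug library, NanoLuc luminescence read after lysing the treated cells, taken as a measure of mutant VPS33A protein stability.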
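For relative GAG core protein HA-SDC1 amount per cell number vs DMSO in this document: HA-SDC1 level read out by In-Cell Western staining with an anti-HA antibody against the N-terminal tag, screening FDA-approved library drugs.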
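For relative cell viability (CellMask signal) vs DMSO in this document: primary screen of an FDA-approved drug library in HeLa reporter cells in 96-well format, CellMask signal normalized to DMSO-treated wells set as 1, under 0.5 deemed highly cytotoxic.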

`C[C@H](Cc1cc2c(c(C(N)=O)c1)N(CCCO)CC2)NCCOc1ccccc1OCC(F)(F)F` [Silodosin]: in assay [1], the relative cell viability stood at 1.14. Also, the “relative GAG core protein HA-SDC1 amount per cell number” value in assay [2] was inactive: 0.782. Moreover, the “relative mutant VPS33A R498W amount” value in assay [3] is 0.616.

`CC(=O)OCC(=O)[C@H]1CC[C@H]2[C@@H]3CCC4=CC(=O)CC[C@]4(C)[C@H]3CC[C@]12C` [Deoxycorticosterone acetate]: the relative cell viability in assay [1] worked out at 0.908. In addition, in assay [2], the “relative GAG core protein HA-SDC1 amount per cell number” value was inactive: 0.749. Also, the “relative mutant VPS33A R498W amount” value in assay [3] turned out to be 0.934.

Regarding `CC(C)(OCc1nn(Cc2ccccc2)c2ccccc12)C(=O)O` [Bindarit], the relative cell viability in assay [1] worked out at 0.95. For the same compound, the “relative GAG core protein HA-SDC1 amount per cell number” value in assay [2] was inactive: 0.88. Besides, the “relative mutant VPS33A R498W amount” value in assay [3] came to 1.45.

In turn, `C[C@@H](O)[C@@H]1NC(=O)[C@H](CCCCN)NC(=O)[C@@H](Cc2c[nH]c3ccccc23)NC(=O)[C@H](Cc2ccccc2)NC(=O)[C@@H](NC(=O)[C@H](N)Cc2ccccc2)CSSC[C@@H](C(=O)N[C@H](CO)[C@@H](C)O)NC1=O` [Octreotide acetate] gave a relative cell viability in assay [1] of 1.1. For the same compound, the “relative GAG core protein HA-SDC1 amount per cell number” value in assay [2] is inactive: 0.99. Besides, in assay [3], the “relative mutant VPS33A R498W amount” value was determined as 1.24.

With `O=C1Cc2cc(CCN3CCN(c4nsc5ccccc45)CC3)c(Cl)cc2N1` [Ziprasidone HCl], the relative cell viability in assay [1] came out at 0.994. Further, in assay [2], the “relative GAG core protein HA-SDC1 amount per cell number” value was inactive: 1.38. In addition, the “relative mutant VPS33A R498W amount” value in assay [3] was found to be 1.27.

`O=C1O[C@H]([C@@H](O)CO)C(O)=C1O` [Vitamin C] showed a relative cell viability in assay [1] of 1.06. In addition, in assay [2], the “relative GAG core protein HA-SDC1 amount per cell number” value is inactive: 0.742. In addition, the “relative mutant VPS33A R498W amount” value in assay [3] came to 1.15.

In assay [1], `C[C@]12C=CC(=O)C=C1CC[C@@H]1[C@@H]2C(=O)C[C@@]2(C)[C@H]1CC[C@]2(O)C(=O)CO` [Prednisone] registered a relative cell viability of 1.05. Moreover, the “relative GAG core protein HA-SDC1 amount per cell number” value in assay [2] was inactive: 0.789. Also, the “relative mutant VPS33A R498W amount” value in assay [3] was 1.26.

With `CC(C)NCC(O)COc1ccc(CCOCC2CC2)cc1` (stereo not given) [Betaxolol HCl], the relative cell viability in assay [1] was 1.24. Moreover, in assay [2], the “relative GAG core protein HA-SDC1 amount per cell number” value was inactive: 0.918. In assay [3], the “relative mutant VPS33A R498W amount” value was 1.26.

As to `Cc1cc(=O)[nH]c(=S)[nH]1` [Methylthiouracil], the relative cell viability in assay [1] was determined as 0.969. The “relative GAG core protein HA-SDC1 amount per cell number” value in assay [2] is inactive: 0.872. In addition, the “relative mutant VPS33A R498W amount” value in assay [3] turned out to be 1.13.

In the case of `CCCCC[C@H](O)/C=C/[C@H]1[C@H](O)CC(=O)[C@@H]1CCCCCCC(=O)O` [Alprostadil], the relative cell viability in assay [1] was 1.01. In assay [2], the “relative GAG core protein HA-SDC1 amount per cell number” value was inactive: 0.877. For the same compound, the “relative mutant VPS33A R498W amount” value in assay [3] was determined as 2.09.

`CNC1(C)C2CCC(C2)C1(C)C` (stereo not given) [Mecamylamine hydrochloride]: the relative cell viability in assay [1] amounted to 1.23. In assay [2], the “relative GAG core protein HA-SDC1 amount per cell number” value is inactive: 0.767. Besides, the “relative mutant VPS33A R498W amount” value in assay [3] came out at 1.13.

Compound `Cc1[nH]c(=O)c(C#N)cc1-c1ccncc1` [Milrinone] came in with a relative cell viability in assay [1] of 1.24. The “relative GAG core protein HA-SDC1 amount per cell number” value in assay [2] is inactive: 0.926. Also, the “relative mutant VPS33A R498W amount” value in assay [3] stood at 0.969.

In the case of `CC(C)(Sc1cc(C(C)(C)C)c(O)c(C(C)(C)C)c1)Sc1cc(C(C)(C)C)c(O)c(C(C)(C)C)c1` [Probucol], the relative cell viability in assay [1] is 1.02. For the same compound, the “relative GAG core protein HA-SDC1 amount per cell number” value in assay [2] is inactive: 1.03. Also, the “relative mutant VPS33A R498W amount” value in assay [3] was found to be 1.18.

In assay [1], `COc1cc2c(cc1Cc1cccc(Cl)c1F)c(=O)c(C(=O)O)cn2[C@H](CO)C(C)C` [Elvitegravir (GS-9137)] returned a relative cell viability of 0.994. In addition, the “relative GAG core protein HA-SDC1 amount per cell number” value in assay [2] is active: 0.435. In assay [3], the “relative mutant VPS33A R498W amount” value was 1.22.

In turn, `CCOC(=O)C1=C(C)NC(C)=C(C(=O)OCC)C1c1ccccc1/C=C/C(=O)OC(C)(C)C` [Lacidipine] registered a relative cell viability in assay [1] of 1.15. Besides, the “relative GAG core protein HA-SDC1 amount per cell number” value in assay [2] was inactive: 0.672. The “relative mutant VPS33A R498W amount” value in assay [3] was determined as 0.644.

Turning to `C=C1C[C@@]23CC[C@H]4[C@@](C)(CCC[C@@]4(C)C(=O)O[C@@H]4O[C@H](CO)[C@@H](O)[C@H](O)[C@H]4O)[C@@H]2CC[C@]1(O[C@@H]1O[C@H](CO)[C@@H](O)[C@H](O)[C@H]1O[C@@H]1O[C@H](CO)[C@@H](O)[C@H](O)[C@H]1O)C3` [Stevioside], the relative cell viability in assay [1] stood at 1.09. Besides, in assay [2], the “relative GAG core protein HA-SDC1 amount per cell number” value was inactive: 1.02. Moreover, in assay [3], the “relative mutant VPS33A R498W amount” value is 1.5.

Consider `CC(C)(CO)C(O)C(=O)NCCC(=O)O` [Calcium D-Panthotenate], for which the relative cell viability in assay [1] is 1.14. Besides, in assay [2], the “relative GAG core protein HA-SDC1 amount per cell number” value is inactive: 0.959. For the same compound, the “relative mutant VPS33A R498W amount” value in assay [3] came out at 1.33.

For the compound `COc1ccc(C2CNC(=O)C2)cc1OC1CCCC1` (stereo not given) [Rolipram], the relative cell viability in assay [1] was 0.992. Moreover, the “relative GAG core protein HA-SDC1 amount per cell number” value in assay [2] was inactive: 1.19. Moreover, the “relative mutant VPS33A R498W amount” value in assay [3] turned out to be 1.11.

Consider `COC(=O)[C@@H]1[C@H]2C[C@H]3c4[nH]c5ccccc5c4CCN3C[C@@H]2CC[C@@H]1O` [Yohimbine Hydrochloride], for which, in assay [1], the relative cell viability amounted to 1.03. Also, the “relative GAG core protein HA-SDC1 amount per cell number” value in assay [2] is inactive: 0.928. Moreover, in assay [3], the “relative mutant VPS33A R498W amount” value worked out at 1.46.

The compound `NCC[C@H](O)C(=O)N[C@@H]1C[C@H](N)[C@@H](O[C@H]2O[C@H](CN)[C@@H](O)[C@H](O)[C@H]2O)[C@H](O)[C@H]1O[C@H]1O[C@H](CO)[C@@H](O)[C@H](N)[C@H]1O` [Amikacin] showed a relative cell viability in assay [1] of 0.963. Further, the “relative GAG core protein HA-SDC1 amount per cell number” value in assay [2] is inactive: 1.04. Further, the “relative mutant VPS33A R498W amount” value in assay [3] was 1.07.
